Measurements as given in paper PMC4336329 (PLoS ONE, 2015).
About 14,000 (4.5%) of roughly 310,000 compounds showed an effect of 50% or more. The effect is printed as a negative number. The list shows a part of the results.

Target: human ether-à-go-go-related gene (hERG) potassium channel (human, UniProt Q12809)
Assay: primary screen, population patch clamp on CHO cells stably expressing hERG
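Also: peak tail current of the secondary pulse compared with the same well before compound.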

Sequence of human ether-à-go-go-related gene (hERG) potassium channel (Q12809 whole entry, looked up): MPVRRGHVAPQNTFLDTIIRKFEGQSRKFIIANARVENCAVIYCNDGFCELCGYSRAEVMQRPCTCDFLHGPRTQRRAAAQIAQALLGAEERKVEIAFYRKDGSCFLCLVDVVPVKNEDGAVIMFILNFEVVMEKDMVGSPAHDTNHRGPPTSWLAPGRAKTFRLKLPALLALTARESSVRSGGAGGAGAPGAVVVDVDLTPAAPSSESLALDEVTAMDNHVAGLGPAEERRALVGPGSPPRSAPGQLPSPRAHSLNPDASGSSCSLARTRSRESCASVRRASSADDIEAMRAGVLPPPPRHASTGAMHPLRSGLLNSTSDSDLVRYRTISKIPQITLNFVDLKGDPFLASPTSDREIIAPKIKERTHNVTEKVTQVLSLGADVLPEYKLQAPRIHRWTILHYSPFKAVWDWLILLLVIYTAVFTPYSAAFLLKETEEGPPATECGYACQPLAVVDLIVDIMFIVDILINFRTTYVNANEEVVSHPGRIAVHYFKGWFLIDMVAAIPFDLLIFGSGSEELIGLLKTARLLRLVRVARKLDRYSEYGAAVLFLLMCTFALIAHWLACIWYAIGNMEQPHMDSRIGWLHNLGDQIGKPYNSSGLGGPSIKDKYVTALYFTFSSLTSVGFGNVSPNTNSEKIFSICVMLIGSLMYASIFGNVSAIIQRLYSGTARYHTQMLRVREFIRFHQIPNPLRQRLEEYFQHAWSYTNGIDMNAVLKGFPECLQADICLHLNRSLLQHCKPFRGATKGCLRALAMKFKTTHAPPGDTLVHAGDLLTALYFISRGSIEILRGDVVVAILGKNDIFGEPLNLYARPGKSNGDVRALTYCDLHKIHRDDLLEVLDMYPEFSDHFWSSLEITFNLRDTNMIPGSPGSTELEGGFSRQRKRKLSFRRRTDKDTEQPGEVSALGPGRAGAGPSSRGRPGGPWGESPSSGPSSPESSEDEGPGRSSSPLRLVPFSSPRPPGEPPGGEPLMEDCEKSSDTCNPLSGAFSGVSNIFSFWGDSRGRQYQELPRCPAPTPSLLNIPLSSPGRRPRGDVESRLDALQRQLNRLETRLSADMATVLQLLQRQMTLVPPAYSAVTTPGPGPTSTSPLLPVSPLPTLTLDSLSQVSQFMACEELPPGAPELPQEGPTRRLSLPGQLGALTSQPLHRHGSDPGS

Row | Structure (SMILES) | hERG current change (%, negative = inhibition) at 10uM
1 | Cc1nnc(SCC(=O)N2CCN(c3ccccc3)CC2)n1-c1ccccc1 | -16.9%
2 | O=C1C=CN(C(=O)Oc2ccccc2)CC1 | 10.3%
3 | COCCn1c(=NC(=O)CSC(C)=O)sc2cc(F)ccc21 | -23%
4 | O=C(CSc1nnc(CNC(=O)c2cccs2)o1)Nc1cccc(C(F)(F)F)c1 | -35.1%
5 | CCC(=O)Nc1ccc(NC(=O)c2cc3ccccc3o2)c(OC)c1 | -5.36%
6 | COc1ccc(/C=C/C(=O)C2CC2)cc1Cn1nc(C)c([N+](=O)[O-])c1C | -14.6%
7 | CCOC(=O)c1ccc2nc(NC(NC(C)=O)(C(=O)OC)C(F)(F)F)sc2c1 (stereo not shown) | 13.6%
8 | CC(C)c1ccc(N(C(=O)c2csnn2)C(C(=O)NC2CCCC2)c2ccncc2)cc1 (stereo not shown) | -57.8%
9 | CCS(=O)(=O)c1nc(S(=O)(=O)c2ccc(C)cc2)c(N2CCN(CCO)CC2)s1 | -5.69%
10 | Cc1ccc(O)c(NC(=O)Cc2ccc3ccccc3c2)c1 | 2.33%
11 | CC(=O)N1C(=O)NC(c2ccccc2)=C([N+](=O)[O-])C1c1ccccc1 (stereo not shown) | -5.17%
12 | O=C(Nc1ccc2c(c1)OCO2)C1COc2ccccc2O1 (stereo not shown) | 13.5%
13 | CCOc1cc(C2/C(=C(/O)c3ccc(OC(C)C)cc3)C(=O)C(=O)N2CCCOC)ccc1O (stereo not shown) | 25%
14 | CS(=O)(=O)c1ccc(C(=O)Nc2ccccc2Cl)cc1 | -25.1%
15 | CCc1ccc(CN(C)C(=O)c2ccc3c(=O)n4c(nc3c2)CCC4)cc1 | -24.8%
16 | CCOC(=O)Cc1csc(NC(=O)CSc2nccn2C)n1 | 17.3%
17 | COc1ccc(C(=O)N2c3ccccc3CC2C)cc1OC (stereo not shown) | 0.669%
18 | COc1ccccc1CC(=O)NNS(=O)(=O)c1cccc([N+](=O)[O-])c1 | 8.88%
19 | CCn1c(C(C)NS(=O)(=O)c2ccc(Cl)cc2)n[nH]c1=S (stereo not shown) | 20.1%
20 | Cc1ccccc1-n1nc2c(c1NC(=O)c1cccc(F)c1)CS(=O)C2 (stereo not shown) | 9.26%
21 | C=CCn1c(C)nnc1SCC(=O)Nc1oc(C)c2c(C)n[nH]c(=O)c12 | -1.95%
22 | Cc1ccc(C)c(NC(=S)N/N=C/C(C)c2ccccc2)c1 (stereo not shown) | -10.8%

Row | Structure (SMILES) | hERG current change (%, negative = inhibition) at 10uM
23 | Cc1nnc(-c2ccc(N3CCOCC3)c([N+](=O)[O-])c2)o1 | 11.6%
24 | CCc1ccccc1NC(=S)N(Cc1ccc(C(=O)O)cc1)Cc1ccc(OC)c(OC)c1 | 22%
25 | COc1ccc(CCNC(=O)Cn2c(=O)n(-c3cc(F)ccc3F)c(=O)c3sccc32)cc1OC | -6.4%
26 | O=C(NCCc1ccc(Cl)cc1)C1CC(=O)N(C2CCCC2)C1 (stereo not shown) | 4.17%
27 | Cc1ccc(/C=C2\SC(=S)N(CCC(=O)NNS(=O)(=O)c3ccccc3)C2=O)cc1 | 16.5%
28 | CS(=O)(=O)Nc1ccc(C(=O)N2CCCCC2)cc1 | -3.35%
29 | COc1ccc(OC)c(S(=O)(=O)NCc2cc(-c3ccccc3)no2)c1 | 17.6%
30 | Cc1onc(-c2ccccc2)c1C(=O)N/N=C/c1c(F)cccc1Cl | 4.94%
31 | COc1ccccc1N1CCN(c2ccc(Cl)nn2)CC1 | 11.6%
32 | O=C(COCc1cc(-c2ccco2)on1)NC1CCCCC1 | 3.18%
33 | Cc1ccccc1C(=O)N1CCc2ccccc2C1 | -0.92%
34 | O=C(c1sc2cccc(F)c2c1Cl)N1CCN(c2ncccn2)CC1 | -41.5%
35 | COC(=O)c1ccccc1NC(=O)CSc1n[nH]c(CC(C)C)n1 | 6.11%
36 | Cc1cccc(-n2c(SCC(=O)N3CCCC3)nnc2-c2ccccn2)c1C | 6.05%
37 | C#CCOCCOCCOCCNc1nc(N2CCN(C(=O)CCCCCCCCCCNC(=O)[C@H](CCC(=O)O)n3cc(CCCCCN)nn3)CC2)nc(N2CCN(C(=O)CCCCCCCCCCNC(=O)[C@@H]([C@H](C)O)n3cc(C)nn3)CC2)n1 | 20.1%
38 | CN(CCC#N)S(=O)(=O)c1ccc2[nH]cc(C(=O)NCCc3ccccc3)c(=O)c2c1 | -0.382%
39 | O=P(Cc1cccc[n+]1[O-])(c1ccccc1)c1ccccc1 | 15.5%
40 | O=C(Cn1ncc(Cl)c(Cl)c1=O)N1CCN(S(=O)(=O)c2ccc3ccccc3c2)CC1 | -49.2%
41 | COc1ccc(C(=O)COC(=O)CCCC(=O)NC2CCCCC2)cc1 | 2.77%
42 | NS(=O)(=O)c1cccc(NC(=O)COC(=O)CCc2ccccc2)c1 | 17%
43 | COC(=O)c1ccc(NC(=O)c2snnc2-c2ccccc2)cc1 | 2.66%
44 | COc1ccc(COC(=O)c2n[nH]c3ccccc23)cc1F | -3.24%

Row | Structure (SMILES) | hERG current change (%, negative = inhibition) at 10uM
45 | Cc1ccc(N2C(=O)NC(NS(=O)(=O)c3ccccc3)(C(F)(F)F)C2=O)cc1C (stereo not shown) | 44.4%
46 | Cc1ccccc1NC(=O)N1CCCC1C(=O)NCc1ccccc1 (stereo not shown) | 11.1%
47 | CCOC(=O)N/N=C1\CCc2ccccc21 | 4.57%
48 | O=C(NCCc1ccc(F)cc1)c1ccc(NS(=O)(=O)c2ccc3[nH]c(=O)[nH]c3c2)cc1 | 19.9%
49 | Cc1cccc(S(=O)(=O)NNC(=O)c2cc(-c3ccc(F)cc3)nc3ccccc23)c1 | 28.5%
50 | Cc1ccc(C(=O)NC(C)c2ccccc2)cc1Br (stereo not shown) | -11.8%
51 | O=C(Cn1cnc2c(oc3ccccc32)c1=O)NCc1ccccc1 | -19%
52 | NS(=O)(=O)c1ccc(CNC(=O)c2cc(-c3cccnc3)nc3ccccc23)cc1 | -12.5%
53 | CC(=O)NNc1cc(C)nc(NS(=O)(=O)c2ccc(C)cc2)n1 | 15.8%
54 | COc1ccc(CN2CCOC2=O)cc1OC | 11.2%
55 | COc1ccc(C(=O)Nc2cc(C)nn2-c2cccc(F)c2)cc1 | 0.834%
56 | CCOC(=O)c1cn(CC)c2cc(Cl)c([N+](=O)[O-])cc2c1=O | -20.4%
57 | O=S(=O)(O)c1cccnc1SCc1ccccc1 | 21.1%
58 | O=C(NC(CO)Cc1ccc([N+](=O)[O-])cc1)C(Cl)Cl (stereo not shown) | 6.97%
59 | O=C(Nc1cccc([N+](=O)[O-])c1)c1ccc(N2CCCC2=O)cc1 | 12%
60 | CCCSc1nc(N2CCOCC2)c2c(c1C#N)CCCC2 | 0.781%
61 | CCC1C=C(c2ccccc2)C=CN=C1N(CC)CC (stereo not shown) | -61.6%
62 | COc1ccc2c(c1)CCc1c(C(=O)NCCCn3ccnc3)noc1-2 | -50.2%
63 | Cc1c(/C=N/NC(=O)c2sc3ccccc3c2Cl)cnn1C | -3.8%
64 | COc1ccc(N2CCN(C(=S)Nc3ccccc3)CC2)cc1 | 16.9%
65 | CCN(CC)C(=O)CSc1nnc(NC(=O)CCc2ccccc2)s1 | 6.35%
66 | O=C(NCc1ccccc1)c1ccc(CN(c2ccccn2)S(=O)(=O)c2ccccc2)cc1 | -9.49%

Row | Structure (SMILES) | hERG current change (%, negative = inhibition) at 10uM
67 | COc1cc(/C=N/NC(=O)CCc2n[nH]c(=O)[nH]c2=O)cc(OC)c1OC | -17.1%
68 | CC(/C=C1\N=C(SCc2ccccc2Cl)SC1=O)=C\c1ccccc1 | 9.89%
69 | Cc1ccc(C)c(Cn2nc(-c3ccccc3)ccc2=O)c1 | 3.4%
70 | O=C(CCS(=O)(=O)c1ccc2c(c1)NC(=O)CO2)NCc1ccccc1 | -2.28%
71 | COc1ccc(C2CC2/C(C)=N/OC(=O)c2cccs2)cc1 (stereo not shown) | -17.7%
72 | Cc1nnsc1C(=O)NNc1ccc(C(C)C)cc1 | 10.9%
73 | COC(OC)c1ccnc(-c2ccc(OC(=O)c3ccc(F)cc3)cc2)n1 | 9.87%
74 | Cc1ccc(C(=O)CCNc2ccc(Br)cc2)o1 | -0.536%
75 | N#Cc1nc(Cc2cccc3ccccc23)oc1N1CCOCC1 | -21.3%
76 | CC(=O)Oc1ccc(-c2cccc(C(=O)NCCO)c2)cc1 | 16.7%
77 | CCOc1ccc(N2CC(C(=O)NCc3ccccn3)CC2=O)cc1 (stereo not shown) | 5.2%
78 | O=C(Nc1ccc(Cl)cc1)N1CCCN(Cc2ccc(F)cc2)C1 | -75.4%
79 | CCC(C)c1ccccc1OCCOCCN1CCCC1 (stereo not shown) | -11.6%
80 | O=C(CN1C(=O)/C(=C/c2ccccc2)SC1=S)NNC(=O)c1ccccc1O | 3.37%
81 | CC1OC23CCCCC2C(C#N)(C(=N)O3)C1(C#N)C#N (stereo not shown) | 14.3%
82 | Cc1ccc(S(=O)(=O)N2CCN(C(=O)C3CC3C)CC2)c(C)c1 (stereo not shown) | -22.8%
83 | NNC(=O)C1CCCn2c1nc1sc3c(c1c2=O)CCCC3 (stereo not shown) | -5.66%
84 | Cc1nc(-c2ccccc2)cc(-c2ccccc2)n1 | 6.79%
85 | c1ccc(SCc2nc3ccccc3s2)nc1 | 7.01%
86 | Cc1cccc(NC(=O)Nc2cccc3ccccc23)c1 | 3.91%
87 | Cc1sc2ncnc(SCC(=O)N3CCCC3)c2c1C | 2.1%
88 | CC(=O)c1cccc(S(=O)(=O)N2CCN(c3nc4cc(C)cc(C)c4cc3C#N)CC2)c1 | 4.7%
